Reference: the supplement of paper PMC3334620
Whole data set: some 33,000 sequences, median “E-score (-0.5 to 0.5)” near -0.056, cut for the highest 2% near 0.38. Some of the results follow.

Target: Stb4 (UniProt P50104)
Experiment: PBM E-score (8-mer binding enrichment) (E-score (-0.5 to 0.5)); higher = stronger / more preferred TF binding; most listed sequences are background and not binding sites
Settings: protein concentration: 200 nM; construct: GST-DNA-binding domain
How it was run: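 E-scores (a modified Wilcoxon-Mann-Whitney statistic) were assigned by the Universal PBM Analysis Suite to every ungapped eight-base word pooled with its reverse complement. The input came from universal all-10-mer Agilent arrays made double-stranded by primer extension and probed with GST-tagged yeast transcription factors at about 100-200 nM. Fluorescent anti-GST detected bound protein, and masliner normalised the scans.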

Row | Sequence | PBM E-score
1 | CCCCACCC | 0.242
2 | CTTCAGAA | 0.0359
3 | GGGCCACC | 0.108
4 | CAATGTCC | 0.00172
5 | CCATATTC | -0.0336
6 | ATCAGCCC | -0.0686
7 | ACCTTCGG | 0.404
8 | GTGCCAGA | -0.31
9 | GGTATGCA | -0.00611
10 | CGGTATAC | 0.203
11 | AGAGGCCT | -0.147
12 | ATCGATGG | -0.0949
13 | AAGGTTGC | -0.168
14 | GGCTCGAC | -0.106
15 | GCCTCACC | -0.0746
16 | CGCTTGGA | -0.0767
17 | CAGTATGC | -0.0123
18 | TATCTCGA | -0.244
19 | AGTGTAAA | -0.151
20 | AAATCTAA | -0.0554
21 | AGTTTTGA | -0.0084
22 | ACTCCAAC | -0.11
23 | GATCCTCC | 0.101
24 | ACTCTAAT | -0.203
25 | GCAGCAAA | -0.117

Row | Sequence | PBM E-score
26 | GGGATTGA | -0.0318
27 | CGGGGGGC | 0.0311
28 | CACGTGTC | -0.165
29 | GGGCCCAA | -0.0507
30 | CGGTGTCC | 0.15
31 | AAGATAAC | -0.0237
32 | TGCCCTAA | -0.195
33 | ACTTTTTA | -0.153
34 | GCAGCGCC | -0.0264
35 | ACGTAGCT | -0.34
36 | GGCGTGTA | -0.049
37 | ATCGTAAA | -0.279
38 | GCAACGCA | -0.0257
39 | CTGGGTGA | -0.0308
40 | AGAGCAAT | -0.174
41 | AAGAGCGG | 0.12
42 | TCACCCGA | 0.407
43 | CACCTTTC | 0.0203
44 | ATATTTAA | -0.0566
45 | GACATTGC | -0.107
46 | ATGGTCCC | -0.126
47 | CGGTACTC | 0.155
48 | GCATAAAC | 0.0326
49 | ATCCTGTC | 0.103
50 | AACATAGT | -0.0823

Row | Sequence | PBM E-score
51 | ATAGCTCA | -0.215
52 | CACTAAGA | -0.242
53 | CGGGCCAA | 0.168
54 | AAAAAGAC | -0.0725
55 | AGCTGATA | -0.047
56 | TCAGACGA | -0.138
57 | AAGAGGAC | -0.18
58 | CACATCAC | -0.0222
59 | CTAAGTAC | -0.0951
60 | GCGCAAGC | -0.251
61 | ACACCAGC | -0.183
62 | ACGCTTAA | -0.217
63 | TAGACTCA | -0.0962
64 | ACTCGGTC | 0.204
65 | TACCATCA | -0.168
66 | ATAATAAA | -0.0519
67 | CGCTTTGA | -0.0214
68 | AGGGGACC | -0.211
69 | GCCTACTA | -0.226
70 | ATTAGTTG | -0.204
71 | CTAATACC | 0.13
72 | ACTAGTCC | -0.0909
73 | AACTCGCG | -0.00482
74 | GGGTAAGA | 0.0992
75 | CGGTAAAC | 0.163

Row | Sequence | PBM E-score
76 | AATGGCGC | 0.00122
77 | AAGGTGGA | -0.12
78 | AGACATCG | -0.0825
79 | ATCCTGAA | 0.0113
80 | ATGCCAAA | -0.302
81 | CGATTACA | -0.0274
82 | CACAGCAA | -0.0864
83 | ACTGCTAT | -0.154
84 | GTCCCCGA | 0.288
85 | CGACTCAA | 0.167
86 | CGACGTAA | 0.16
87 | ACCGGTAT | 0.0767
88 | CGTCGCGA | 0.0945
89 | ACCTGGCT | -0.231
90 | AACATGAC | -0.101
91 | TCGGCTCA | 0.323
92 | GCCATGGA | -0.273
93 | GAGTACGA | 0.0531
94 | GCAGTATA | 0.0811
95 | AGTCCATC | -0.0379
96 | TATCGGAA | 0.431
97 | CTAGCGAC | -0.126
98 | AATCCCAG | -0.0543
99 | GTGCCCTA | -0.202
100 | GTCGCTTA | -0.00637

Row | Sequence | PBM E-score
101 | GATTGCCC | -0.0825
102 | CGTTTGTC | -0.111
103 | ACTGCTTC | -0.0772
104 | CTAACCAC | -0.0981
105 | AGGACTAG | -0.29
106 | GATGCACC | 0.0232
107 | AGACTGAT | -0.14
108 | GGTCGGTA | 0.223
109 | CGGGGGCC | 0.152
110 | CACTCTGC | -0.179
111 | GTCCGTGA | -0.0305
112 | CGTCAAGC | 0.00318
113 | CAAGAAGG | -0.229
114 | AATGTTCA | 0.0228
115 | GTGGACCA | -0.0658
116 | GCGGGGAA | 0.124
117 | GAAGGCCC | 0.0595
118 | CCTTCCCG | 0.301
119 | CTGCCAAG | -0.234
120 | AGAAAAAG | 0.103
121 | AGTCAGGA | -0.144
122 | TCGAGAAA | -0.141
123 | AGGGAAGC | -0.102
124 | TTCAAGAA | 0.146
125 | CCGAATGC | 0.332

Row | Sequence | PBM E-score
126 | TCCTAGCA | -0.0956
127 | GGTTGTAA | -0.063
128 | CGGGCCGA | 0.435
129 | CTACGTGC | -0.23
130 | ATTTTATG | 0.133
131 | CCAGTACG | -0.121
132 | AGACATAA | 0.064
133 | GCAGAAGA | -0.126
134 | GTCTTTAA | -0.107
135 | CCGTATAG | -0.0927
136 | ACATAGCA | -0.15
137 | TAGGAATA | -0.041
138 | ACTGCTCG | 0.11
139 | CTATTTAA | 0.133
140 | AGTCTGAG | -0.237
141 | ATCGCGGG | 0.123
142 | AGTTAAGG | -0.231
143 | GGATGGAA | 0.184
144 | AATGGCCT | -0.083
145 | ATCAGCAG | -0.167
146 | CACTGGAG | -0.343
147 | AGGAGCCT | -0.282
148 | ACAGCGTC | -0.00871
149 | GCTTGGGA | -0.195
150 | ACATCCGG | 0.447

Row | Sequence | PBM E-score
151 | CGGACGCC | 0.191
152 | ACACTCCC | 0.0452
153 | CATTTTCA | 0.035
154 | CAGGAATA | -0.15
155 | GGTCCGTA | 0.151
156 | TTCCGAAA | 0.468
157 | CCAAGTTA | -0.175
158 | ATTTAATC | 0.144
159 | TAAGTACA | -0.0911
160 | GGGTCCAA | 0.136
161 | GGAATAAA | 0.23
162 | CGGACCTA | 0.162
163 | ATCATAAA | -0.088
164 | AAATGCCC | -0.122
165 | ACCTTCCG | 0.4
166 | ACGATTTG | -0.231
167 | CTATTAGC | -0.0309
168 | AACTGGGT | 0.0216
169 | CTGGCTTA | -0.0919
170 | GGTTCGCA | 0.0434
171 | AATTTTAA | -0.00885
172 | GCGGTGCA | -0.283
